Measured values as given in PubChem BioAssay (NCI).
Where “and” joins values, the source holds several entries; their conditions need not be identical. Identical values can stand only once.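 Growth conditions: 96-well plates. Treatment: test compound, 48 hours, 5 concentrations. Analysis: linear interpolation between bracketing concentrations; unreached endpoints set to highest concentration. At the GI50, growth is halved. TGI is the concentration that stops growth completely.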

Tested on: NCI-H322M lung
Assay: inhibition of tumour cell growth, NCI panel, 48 h

Structure (SMILES) | GI50 [µM] | TGI
N.N.N.N.O=C([O-])CCl.O=C([O-])CCl.[Co+3].[O-][Cl+3]([O-])([O-])[O-] | > 100 | > 100 µM
CCOC(=O)c1ccc(NC(=O)Oc2ccc3c(C)cc(=O)oc3c2)cc1 | – | > 100 µM
O=C1COc2cccnc2N1CCCCO | – | > 100 µM
COc1cc(Nc2ncccc2C(=O)NCc2cn(Cc3cccc(Oc4ccccc4)c3)nn2)cc(OC)c1 | 6.15 | > 100 µM
Oc1ccc(Nc2ncnc3c2sc2ncccc23)cc1 | 0.811 | > 100 µM
CC(C)C1=CC23CCC4C(C)(C(=O)O)CCCC4(C)C2CC1C1C(=O)N(c2ccc(Cc4ccc(N5C(=O)C6C7CC8C9(C)CCCC(C)(C(=O)O)C9CCC8(C=C7C(C)C)C6C5=O)cc4)cc2)C(=O)C13 (configuration not stated) | – | 24.9 µM
Nc1nc(Cl)cc(NCCCCCCCCNc2cc(Cl)nc(N)n2)n1 | – | > 100 µM
CCOC(=O)NC(Nc1ccc(C)cc1)(C(F)(F)F)C(F)(F)F | – | > 100 µM
CC(C)N(C(=O)C12C3C4C1C1C4(C#N)C3C12C#N)C(C)C (configuration not stated) | – | > 100 µM
CCOC(=O)Nc1[nH]cc(-c2ccccc2)c1C#N | – | > 100 µM
CC(=O)Nc1ccc(N=Nc2c(O)c(S(=O)(=O)O)cc3cc(S(=O)(=O)O)ccc23)cc1 | – | > 100 µM
CN(C)CCNC(=O)c1cccc2ccc(-c3ccc(O)cc3)nc12 | 1.62 | 10.3 µM and 11.3 µM
S=C(Nc1ccc(Cl)cc1)Nc1ccc(-c2nc3ccccc3s2)cc1 | 21.1 | 87.2 µM
Cc1n(Cc2ccccc2)c2c([n+]1C)C(=O)c1ccccc1C2=O | – | 1.45 µM
CC1(C)N=C(N)N=C(N)N1c1ccc(CCCCc2ccc(Cl)cc2S(=O)(=O)F)c(Cl)c1 | 0.733 | 18.6 µM
CC(C)Cc1ccc(C(C)C(=O)N2CCN(/C=C/c3ccccc3)CC2)cc1 (configuration not stated) | – | 31.4 µM
NC(N)=NS(=O)(=O)c1ccc(NNc2c3ccccc3nc3c(C(=O)Nc4ccc(S(=O)(=O)Nc5ncccn5)cc4)cccc23)cc1 | – | > 100 µM
O=C1Sc2cc3ccccc3cc2C(=O)Sc2ccc(Br)cc21 | – | 29.5 µM
O=C(O)c1nnsc1-c1ccc(-c2snnc2C(=O)O)cc1 | – | > 100 µM
O=CCC1CCCCC1 | – | > 100 µM
O=C1CCC(Cl)=CC2CCCN12 (configuration not stated) | – | > 100 µM
CC1(C)OC(C(=O)Nc2cc3c4ccccc4ccc3c3ccccc23)C(C(=O)N2CCCCC2)O1 (configuration not stated) | – | > 100 µM
COc1ccc2occ(CCC(=O)O)c2c1 | – | > 100 µM
Cc1ccnc2[nH]c(-c3ccc4ccccc4c3)cc(=O)c12 | – | 4.82 µM
COC(=O)c1c(O)ccc2c1c1c(n2Cc2cc(OC)cc(OC)c2)C(=O)c2ccccc2C1 | – | > 100 µM

Structure (SMILES) | GI50 [µM] | TGI
Cc1c2n(c(=O)[nH]c1=O)C1OC(CO)C(O2)C1O (configuration not stated) | – | > 100 µM
CCCCC#CC1=C(Br)C(=O)OC1 | 7.01 | 18.5 µM
COC(=O)COc1ccccc1/C=C1\N=C(c2ccccc2)N(c2cc(C(F)(F)F)ccc2Cl)C1=O | > 100 | > 100 µM
CC1(C)S[C@@H]2[C@H](NC(=O)C3(N)CCCCC3)C(=O)N2[C@H]1C(=O)O | – | > 100 µM
CO/N=C(\C(=O)OC(=NC1CCCCC1)NC1CCCCC1)c1csc(NC(c2ccccc2)(c2ccccc2)c2ccccc2)n1 | – | > 10 µM
CC(C)C(CCl)NC(=O)c1cccc(C(=O)N[C@H](CCl)C(C)C)n1 (stereo in doubt) | – | > 100 µM
CCN(CC)CCC(CNc1ccnc2cc(Cl)ccc12)c1ccc(Cl)cc1 (configuration not stated) | 2 | 5.87 µM
BrC1=C(Br)C2(SCCS2)[C@H]2C[C@@H]1c1ccccc12 | – | > 100 µM
CC1(C)[C@@H](Cn2ccc(=O)[nH]c2=O)CC[C@@]1(C)CO | – | > 100 µM
O=C(Nc1ccc(Nc2ccncc2)cc1)c1ccc([N+](=O)[O-])cc1 | 14 | 46.8 µM
O=[N+]([O-])c1ccc2[nH]c(=S)[nH]c(=S)c2c1 | – | > 100 µM
O=P(O)(O)CCP(=O)(O)O | – | > 100 µM
c1ccc(N=C(N2CCCC2)N(CCN2CCCC2)c2ccccc2)cc1 | – | > 100 µM
CC(=O)CCn1c(=S)sc2ccccc21 | – | > 100 µM
COc1cc(/C=C/C(=O)c2ccc(O)c(OC)c2)ccc1O | – | 32.3 µM
O=C(Nc1ccn(CCO)c(=O)n1)c1ccccc1 | – | > 100 µM
CC[As](CC)SC[C@H](C)C(=O)N1CCC[C@H]1C(=O)O | 1.37 | 2.68 µM
O=C1CCC2(c3ccc(Cl)cc3)Nc3ncccc3N12 (configuration not stated) | – | > 100 µM
C=CCn1c(N)c(C#N)c(C#N)c1-c1ccccc1 | – | > 100 µM
Cc1cn2c(=O)c3ncn(C4OC(CO)C(O)C4O)c3n(C)c2n1 (configuration not stated) | – | > 100 µM
Cc1ccc(-c2c(C#N)c(-c3ccc(C)cc3)n(NS(=O)(=O)c3ccccc3)c(=O)c2C#N)cc1 | – | > 100 µM
O=[N+]([O-])c1ccc(CN(CCCl)OCCCl)cc1 | – | > 100 µM
CN(C)c1ccc(/C=c2/c3ccccc3n3c2c2c([n+]3C)CCCC2)cc1 | – | 1.92 µM
COC(=O)c1ccc2c(c1)nc(NC(=O)c1ccccc1)n2CCCc1ccccc1 | 4.29 | > 100 µM
COc1cccc(C2CC(C)(O)Oc3cc4c(cc32)OCO4)c1O (configuration not stated) | – | > 83.2 µM

Structure (SMILES) | GI50 [µM] | TGI
OC(CC1SCCCS1)c1ccccc1 (configuration not stated) | – | > 100 µM
CC1=C(C)CC2C(=O)N(c3cc(C(C)(C)C)ccc3C(C)(C)C)C(=O)C2C1 (configuration not stated) | – | > 100 µM
Cc1ccc2c(c1)C(=S)N1CSCC1c1nncn1-2 (configuration not stated) | – | > 100 µM
O=C(N/N=C(\c1ccccc1)c1ccccn1)NC1CCCCC1 | – | > 100 µM
CN1CCN(C2CCN(C(=O)Nc3cc(Oc4ccc(NC(=O)C5(C(=O)Nc6ccc(F)cc6)CC5)c(F)c4)ccn3)CC2)CC1 | – | > 10 µM
CC(C)CCC1CC2C(=O)N(c3ccccc3)C(=O)C2c2[nH]c3ccccc3c21 (configuration not stated) | – | 22.1 µM
C=C(Cl)C(=CCl)CCC(Br)C(C)(C)Cl (mixture of isomers) | – | > 10 µM
Cc1cc(Cl)cc(OCCn2cc(F)cn2)c1-c1nc(N)nc2c1CN(C(=O)NCC(C)(F)F)C2 | 37.5 | > 100 µM
Cc1ccc(SC2c3ccc(C)cc3Oc3nc(N)c(C#N)c(N)c32)cc1 (configuration not stated) | 2.35 | 6.65 µM
COc1ccc(/C=C2\CCNC2=O)cc1 | – | > 100 µM
Cn1cc(C2=C(c3ccc(N)cc3)C(=O)NC2=O)c2ccccc21 | > 21.8 | > 25 µM
Nc1nn2cc(F)cnc2c1C(=O)Nc1cncc(F)c1N1CCC(C(=O)N2CCN(C3COC3)CC2)CC1 | 0.133 | 3.62 µM
Cc1c(O)ccc2c(O)c(NC(=O)c3ccc4c(c3)CCC(C)(C)O4)c(=O)oc12 | – | > 100 µM
NS(=O)(=O)c1ccc(/C=C/c2ccc(O)c(O)c2)cc1 | – | > 100 µM
COC(=O)C(C(=O)c1ccccc1)C(C(=O)C(=O)Nc1ccc(OC)cc1OC)C(=O)C(=O)c1ccc(C)cc1 (configuration not stated) | – | > 100 µM
CC(C)(C)OC(=O)NC1CCCCC1NC(=O)C(=O)NC1CCCCC1NC(=O)OC(C)(C)C (configuration not stated) | – | > 100 µM
N#Cc1c(N)nc(N2CCOCC2)c(C#N)c1-c1ccncc1 | 25.6 | > 100 µM
COc1cc2c(cc1OC)C(CC1=C(c3ccccc3)CN3CCc4cc(OC)c(OC)cc4C3C1)NCC2 (configuration not stated) | – | 29.1 µM
O=C1c2ccccc2C(=O)N1CCn1ccc(NC(c2ccccc2)(c2ccccc2)c2ccccc2)nc1=O | – | 83.3 µM
Nc1c(C(=O)O)nnc2ccc(Cl)cc12 | – | > 100 µM
O=c1sc2ccccc2n1CC1CS1 (configuration not stated) | – | > 100 µM
COc1cc(C2c3cc4c(cc3OC(N3CCCCC3)C2C)OCO4)cc(OC)c1O (configuration not stated) | – | 44.3 µM
C/C=C(\C)C(=O)O[C@H]1C=CC(=O)O[C@H]1CCC(=O)[C@H](C)O | 19.1 | 50.1 µM
C[n+]1c2ccc(Cl)cc2nc2cc(-c3ccccc3)ccc21 | – | 12 µM
